Laboratory results taken from PubChem BioAssay AID504845 (National Center for Advancing Translational Sciences (NCATS), 2011).
Where “and” joins values, the source holds several entries; their conditions need not be identical. Equal entries are not always repeated. In all, about 390,000 compounds went through this assay and about 150 (0.038%) were called active. Inconclusive means that the source gave no clear call. Such entries were picked first, then a sample of the others. Calls come from the whole dose curve; as a rule, active = well fitted inhibition curve with a large enough effect; inconclusive = small, poorly fitted or top-dose-only effect; inactive = no such curve, though single readings can be large or run the other way. A potency beside an inconclusive call is a rough fit, not a confirmed value.

Molecular target: Regulator of G-protein signaling 4 (Homo sapiens) (UniProt P49798)
Assay: Inhibitors of Regulator of G Protein Signaling (RGS) 4: qHTS; note: nearly all actives have a fitted effect of over 75% in size
Settings: Transcreener GDP fluorescence polarization, RGS4-accelerated GTP hydrolysis; series mostly up to 114 µM; activity change, negative = inhibition: at the top concentration
Outline: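 MLSMR compounds (23 nl, pin-transferred) preincubated 10 min at room temperature with a 500nM (2x) first reagent, then RGS4 at 900nM (2x) plus Transcreener GDP mix added; fluorescence polarization (620/688 nm) read before and after 90 min at 30 °C.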
% is set by controls: 0 for no effect and ±100 for the full control effect; potency is the fitted concentration of half-maximal effect; tags give direction and shape of the fitted curve.

Sequence of UniProt P49798 (P49798 whole entry, looked up): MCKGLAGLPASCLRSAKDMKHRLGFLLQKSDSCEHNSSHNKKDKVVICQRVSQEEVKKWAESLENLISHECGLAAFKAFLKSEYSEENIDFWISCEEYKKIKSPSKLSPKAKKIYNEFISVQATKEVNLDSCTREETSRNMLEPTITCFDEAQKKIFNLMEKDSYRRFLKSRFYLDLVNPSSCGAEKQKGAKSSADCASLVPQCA

SMILES | Potency | activity change, negative = inhibition
CCC1(C)CN=C(c2ccccc2)NC1 (stereo not drawn) | inconclusive: 79.4 µM [inhibitor, partial curve, poor fit] | –
c1cc2c(cc1-c1csc(NNC3=NCCCCC3)n1)OCCO2 | inconclusive: 50.1 µM [inhibitor, partial curve, poor fit] | –
COC(=O)C(O)(NC(=O)NC(C)=O)C(F)(F)F (stereo not drawn) | – | inactive: 21.1%
S=c1[nH]nc(-c2cc(-c3ccccc3)n[nH]2)n1/N=C/c1ccc(Cl)c(Cl)c1 | inconclusive: 22.4 µM [inhibitor, full curve, poor fit] | –
O=C(NCCc1ccccc1)c1ccc(CSc2nc3cccnc3n2Cc2ccccc2)cc1 | inconclusive: 89.1 µM [inhibitor, single point] | –
Cc1cccc(/C=C/C(=O)c2cc(Br)ccc(=O)c2O)c1 | – | inactive: -117%
NC(=O)c1c(NC(=O)CCCC(=O)O)sc2c1CCCCCC2 | inconclusive: 79.4 µM [inhibitor, single point] | –
CN1CCN(C2=C(Cl)C(=O)c3ccccc3C2=O)CC1 | inconclusive: 28.2 µM [inhibitor, full curve, poor fit] | –
COc1ccc(C(C[N+](=O)[O-])C2(c3ccc(OC)c(OC)c3)C(=O)c3ccccc3C2=O)cc1 (stereo not drawn) | inconclusive: 17.8 µM [inhibitor, full curve, poor fit] | –
Cc1cc([N+](=O)[O-])ccc1NCc1ccccc1 | – | inactive: 2.18%
CCOc1cc(/C=N\NC(=O)OC(C)(C)C)ccc1OC(=O)c1ccco1 | inconclusive: 39.8 µM [inhibitor, partial curve, poor fit] | –
Cc1cc(F)ccc1NC(=O)CCS(=O)(=O)c1cc2c3c(c1)CCN3C(=O)CC2 | – | inactive: -17.5%
O=C(N/N=C/C(Cl)=C/c1ccc([N+](=O)[O-])cc1)C(=O)Nc1cccc(C(=O)O)c1 | inconclusive: 79.4 µM [inhibitor, partial curve, poor fit] | –
COc1ccccc1N1CCN(CCCNc2c(C)c(=O)n(C)c(=O)n2C)CC1 | inactive | –
CC(NC(=O)/C(C#N)=C/c1ccc(Cl)c([N+](=O)[O-])c1)c1ccccc1 (stereo not drawn) | inconclusive: 35.5 µM [inhibitor, full curve, poor fit] | –
O=C(CSc1nnc(SCc2ccccc2)s1)N/N=C/C=C/c1ccco1 | inconclusive: 79.4 µM [inhibitor, partial curve, poor fit] | –
CCOc1ccccc1CNc1nc2ccccc2n1C | – | inactive: 11.8%
O=C(O)c1ccccc1NS(=O)(=O)c1ccc(NNC(=S)Nc2ccc(OC(F)F)cc2)c([N+](=O)[O-])c1 | inconclusive: 17.8 µM [inhibitor, full curve, poor fit] | –
Cc1ccc2nc(-c3ccc(NC(=O)COC(=O)c4ccc(=O)[nH]c4)cc3)sc2c1 | inconclusive: 79.4 µM [inhibitor, partial curve, poor fit] | –
O=C(c1ccc(Br)o1)N1CCC(c2nc3ccccc3[nH]2)CC1 | inconclusive: 50.1 µM [inhibitor, partial curve, poor fit] | –
CN1CCN(C(c2ccc(Br)cc2)c2cc(Cl)c3cccnc3c2O)CC1 (stereo not drawn) | inconclusive: 31.6 µM [inhibitor, partial curve, poor fit] | –
CCn1c(CNC(=O)c2ccccc2F)nnc1SCC(=O)NC1CCCCC1 | inconclusive: 79.4 µM [inhibitor, single point] | –
O=C1c2ccccc2-c2onc3ccc(Oc4ccccc4)c1c23 | – | inactive: 5.08%

SMILES | Potency | activity change, negative = inhibition
CN(Cc1ccccc1)S(=O)(=O)c1ccccc1[N+](=O)[O-] | inconclusive: 100 µM [inhibitor, single point] | –
Cn1c(=O)cc(NCc2ccccc2)[nH]c1=O | inconclusive: 56.2 µM [inhibitor, partial curve, poor fit] | –
O=C(CSc1nnc(Cc2cccs2)n1Cc1ccco1)Nc1cc(Cl)cc(Cl)c1 | inconclusive: 56.2 µM [inhibitor, partial curve, poor fit] | –
O=C(NNC(=O)C1CCN(c2ncccn2)CC1)c1ccc(Cl)cc1 | – | inactive: 16.3% [at 56.9 µM]
Cn1c(SCC(=O)c2cc3ccccc3o2)nnc1-c1ccccc1 | inconclusive: 28.2 µM [inhibitor, full curve, poor fit] | –
CCOc1ccccc1NC(=O)CN1C(=O)CC(c2ccco2)Sc2ccccc21 (stereo not drawn) | – | inactive: -3.82%
CCOc1ccccc1NC(=S)NC(=O)C1CC1 | – | inactive: -11.1%
N#CC(=C1CCCC1)c1nc(-c2ccccc2O)cs1 | inconclusive: 79.4 µM [inhibitor, single point] | –
FC(F)(F)c1ccccc1/C=N/n1c(COc2ccccc2)n[nH]c1=S | inconclusive: 25.1 µM [inhibitor, full curve, poor fit] | –
COc1ccccc1CNCc1ccc(OC)c2ccccc12 | inconclusive: 89.1 µM [inhibitor, single point] | –
COc1cccc(OC)c1C(=O)OCC(=O)N(C)c1ccccc1 | inconclusive: 44.7 µM [inhibitor, partial curve, poor fit] | –
CC(C)C1Cc2c(sc3c2c(=O)n(Cc2ccccc2)c2nncn32)CO1 (stereo not drawn) | – | inactive: -7.47%
CCN(CC)c1ccc(-c2nn3c(-c4ccccc4OC)nnc3s2)cc1 | inconclusive: 56.2 µM [inhibitor, partial curve, poor fit] | –
NC[C@@H]1O[C@H](C23CC4CC(CC(C4)C2)C3)Cc2c1ccc(O)c2O | inconclusive: 150 nM [inhibitor, full curve, poor fit] and inconclusive: 21.2 µM [inhibitor, partial curve, poor fit] | –
Cc1ccc(SCc2[nH]nc3c2C(c2ccc(C)o2)C(C#N)=C(N)O3)cc1 (stereo not drawn) | inconclusive: 50.1 µM [inhibitor, partial curve, poor fit] | –
COC(=O)c1sccc1NC(=O)c1ccc(C#N)cc1 | – | inactive: -0.886%
Cc1ccc(SCC(=O)c2ccc(CC(=O)O)s2)cc1 | – | inactive: -2.51%
Cc1c(NS(=O)(=O)c2cccc(C(=O)O)c2)c(=O)n(-c2ccccc2)n1C | inconclusive: 100 µM [inhibitor, single point] | –
CCOc1cc(/C=C2/C(=O)ON=C2C)ccc1OCc1ccccc1F | inconclusive: 17.8 µM [inhibitor, full curve, poor fit] | –
Cc1ccc(S(=O)(=O)N2CCN(C(=O)COC(=O)CCOc3cc(C)ccc3C)CC2)cc1 | – | inactive: -2.68%
CN1C(=O)C(CC(=O)NCCc2ccccc2)N(NC(=O)c2ccc(Cl)cc2)C1=S (stereo not drawn) | – | inactive: -8.59%
COc1ccc(/C=N/NC(=S)N[C@H]2CC3CCC2C3)cc1 (stereo partly drawn) | – | inactive: -2.89%
O=C1SC(SCc2ccccc2)=N/C1=C\c1ccco1 | inconclusive: 79.4 µM [inhibitor, partial curve, poor fit] | –

SMILES | Potency | activity change, negative = inhibition
O=C(CC1CCCC1)Nc1ccc(Cl)c(S(=O)(=O)N2CCOCC2)c1 | – | inactive: 23.8%
Cc1c(Cc2ccccc2)sc(NC(=O)Cc2ccccc2)c1C(N)=O | inconclusive: 79.4 µM [inhibitor, partial curve, poor fit] | –
Cc1ccc(S(=O)(=O)c2cnc(SCC(=O)Nc3ccc4c(c3)OCCO4)[nH]c2=O)cc1 | – | inactive: -10.2%
Cc1cc(O)c(NC(=S)NC(=O)c2ccc(-c3ccc(Cl)cc3)o2)cc1C | – | inactive: 11.5%
O=C(NCCCn1ccnc1)c1ccc(Cl)cc1 | – | inactive: 9.72%
Nc1ccc2nc[nH]c2c1 | inconclusive: 31.6 µM [inhibitor, full curve, poor fit] | –
O=C(CCN1C(=O)/C(=C/c2ccccc2Cl)SC1=S)Nc1ccccc1C(=O)O | inconclusive: 56.2 µM [inhibitor, partial curve, poor fit] | –
COC(=O)c1c(C(=O)OC)c(-c2cccc(C)c2)n2c1CS(=O)C2 (stereo not drawn) | inconclusive: 50.1 µM [inhibitor, partial curve, poor fit] | –
CN(C)S(=O)(=O)c1cccc(NC(=S)NC(=O)C2CCCCC2)c1 | – | inactive: -22.3%
COC(=O)c1c(-c2cccs2)csc1NC(=O)c1ccc(Cl)cc1 | inconclusive: 100 µM [inhibitor, partial curve, poor fit] | –
CN(C)S(=O)(=O)Oc1cc(Cl)ccc1C(=O)Nc1ccc(F)cc1F | inconclusive: 50.1 µM [inhibitor, partial curve, poor fit] | –
CCCNC(=O)c1ccc2c(c1)C1C3CCC(C3)C1C(c1ccccc1)N2 (stereo not drawn) | – | inactive: -15%
CC(C)(C)N(Cc1cc2ccccc2[nH]c1=O)C(=O)c1ccco1 | inconclusive: 79.4 µM [inhibitor, partial curve, poor fit] | –
Cc1cc([N+](=O)[O-])nn1CC(=O)N/N=C/c1ccc(O)cc1O | – | inactive: -3.03%
COC(=O)c1ccccc1NC(=O)Cn1cc(S(=O)(=O)Cc2ccccc2F)c2ccccc21 | – | inactive: 9.14%
S=c1nc(-c2ccco2)[nH][nH]1 | inconclusive: 44.7 µM [inhibitor, partial curve, poor fit] | –
Cn1c(CC(=O)Nc2ccccc2)cc2ccccc21 | – | inactive: 18.1%
FC(F)Oc1ccc(-c2csc(NNC3=NCCCCC3)n2)cc1 | inconclusive: 31.6 µM [inhibitor, partial curve, poor fit] | –
Cc1ccc(CSCC(=O)N2CCCC2)cc1 | – | inactive: -13.8%
O=C(O)c1cccc(N2C(=O)C3C4C=CC(C4=C(c4ccccc4)c4ccccc4)C3C2=O)c1 (stereo not drawn) | inconclusive: 89.1 µM [inhibitor, partial curve, poor fit] | –
CC(=O)NC(c1ccc(Cl)cc1Cl)c1ccc2cccnc2c1O (stereo not drawn) | inconclusive: 79.4 µM [inhibitor, single point] | –
Cc1ccc(C(=O)Nc2cccnc2)cc1S(=O)(=O)N1CCCC1 | inconclusive: 89.1 µM [inhibitor, single point] | –
